# Measurements taken from the supplement of paper PMC9446081.
# Among all 39,000 compounds or so, about 220 (0.56%) showed activity. This is one part of the list.
# System: Escherichia coli K-12 BW25113
# Assay: relative growth (OD600 normalised to plate interquartile mean) (fraction); higher = less growth inhibition, active = 0.2 or less
# Conditions: 50 µM; LB; incubation time: overnight (16-24 h)
# 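Note: static incubation at 37 °C against the wild-type strain, values averaged over two biological replicates.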
row,SMILES,relative growth
1,C[C@@H]1CN([C@H](C)CO)C(=O)c2cc(Br)cnc2O[C@H]1CN(C)S(=O)(=O)c1ccc(F)cc1,inactive: 1.03
2,COc1cccc(C#Cc2ccc3c(c2)O[C@@H](CN(C)C(=O)c2ccccn2)[C@@H](C)CN([C@@H](C)CO)S3(=O)=O)c1,inactive: 1.04
3,COCC#Cc1cnc2c(c1)C(=O)N([C@@H](C)CO)C[C@@H](C)[C@H](CN(C)S(=O)(=O)c1cccc(OC)c1)O2,inactive: 1.01
4,C[C@@H]1CN([C@@H](C)CO)C(=O)Cc2cc(NC(=O)c3ccncc3)ccc2O[C@H]1CN(C)S(=O)(=O)c1ccccc1,inactive: 0.98
5,Cc1noc(C)c1S(=O)(=O)Nc1ccc2c(c1)C(=O)N([C@H](C)CO)C[C@H](C)[C@@H](CN(C)C(=O)Nc1cccc3ccccc13)OCCCC[C@H](C)O2,inactive: 0.99
6,COc1ccc(-c2cn(CCNC(=O)[C@@H](NS(=O)(=O)c3ccc(C)cc3)C(C)C)nn2)cc1OC,inactive: 0.999
7,COc1ccc2c3c(n(c2c1)C)[C@H](CO)N(C[C@]13CCN(CC1)S(=O)(=O)C)C(=O)CN(C)C,inactive: 1.01
8,C[C@H](CO)N1C[C@H](C)[C@@H](CN(C)C(=O)Nc2cccc3ccccc23)Oc2ccc(NC(=O)NC3CCCCC3)cc2C1=O,inactive: 0.946
9,C[C@@H]1CN([C@H](C)CO)C(=O)Cc2cc(NC(=O)Cc3cn(C)c4ccccc34)ccc2O[C@H]1CN(C)C,inactive: 1.01
10,OCCNC(=S)Nc1ccccc1,inactive: 0.872
11,C[C@H]1CN([C@@H](C)CO)C(=O)Cc2cc(NC(=O)Nc3ccc(C(F)(F)F)cc3)ccc2O[C@@H]1CN(C)C(=O)Nc1cccc2ccccc12,inactive: 1.01
12,Cc1ccc(S(=O)(=O)N(C)C[C@H]2OCCCC[C@H](C)Oc3ccc(NC(=O)c4ccccc4)cc3C(=O)N([C@H](C)CO)C[C@H]2C)cc1,inactive: 0.992
13,O=C(C[C@@H]1CC[C@@H]2[C@H](COC[C@H](O)CN2C(=O)Nc2ccc(Cl)c(Cl)c2)O1)NCc1ccc(Cl)c(Cl)c1,inactive: 0.97
14,C[C@H]1CCCCO[C@H](CN(C)C(=O)C2CCCCC2)[C@@H](C)CN([C@@H](C)CO)C(=O)c2cc(NC(=O)C3CCCCC3)ccc2O1,inactive: 1
15,CN(Cc1ccc(/C=C/C(=O)Nc2ccc(-c3cccs3)cc2N)cc1)CC12CC3CC(CC(C3)C1)C2,inactive: 1.01
16,Cc1ccc(-c2c[nH]c(=S)[nH]2)cc1,inactive: 0.955
17,C[C@@H]1CCCCO[C@H](CN(C)Cc2ccc3c(c2)OCO3)[C@@H](C)CN([C@H](C)CO)C(=O)c2cc(NC(=O)Nc3ccc(F)cc3)ccc2O1,inactive: 0.918
18,Cc1noc(C)c1S(=O)(=O)N(C)C[C@H]1Oc2ccc(NC(=O)Cn3cnnn3)cc2C(=O)N([C@H](C)CO)C[C@H]1C,inactive: 1.02
19,C[C@@H]1CN([C@H](C)CO)C(=O)c2cc(NC(=O)CCN3CCOCC3)ccc2O[C@@H]1CN(C)CC1CC1,inactive: 0.983
20,C[C@H]1CN([C@@H](C)CO)C(=O)Cc2cc(NC(=O)NC3CCCCC3)ccc2O[C@@H]1CN(C)Cc1ccc(Oc2ccccc2)cc1,inactive: 0.913
21,O=C(C[C@@H]1CC[C@H]2[C@@H](COC[C@@H](O)CN2S(=O)(=O)c2ccccc2)O1)NCCN1CCCCC1,inactive: 1

row,SMILES,relative growth
1,C[C@H](CO)N1C[C@H](C)[C@H](CN(C)S(=O)(=O)c2cn(C)cn2)Oc2ccc(NS(=O)(=O)c3cccs3)cc2C1=O,inactive: 1
2,C[C@H]1CN([C@@H](C)CO)C(=O)c2cccc(NS(=O)(=O)c3ccccc3)c2O[C@@H]1CN(C)S(=O)(=O)c1cn(C)cn1,inactive: 1
3,CC(C)=CCC/C(C)=C/CC/C(C)=C/CCC(=O)OC/C=C(\C)CCC=C(C)C,inactive: 0.986
4,COc1ccc(C(=O)c2ccccc2)c(O)c1,inactive: 0.934
5,COc1ccccc1C#Cc1ccc2c(c1)O[C@@H](CN(C)Cc1cncnc1)[C@H](C)CN([C@@H](C)CO)S2(=O)=O,inactive: 1.02
6,C[C@@H]1CN([C@H](C)CO)C(=O)Cc2cc(NS(=O)(=O)c3cn(C)cn3)ccc2O[C@@H]1CN(C)S(=O)(=O)c1cn(C)cn1,inactive: 0.981
7,COc1ccc2c3c(n(c2c1)C)[C@H](CO)N(C[C@]13CCN(CC1)C(=O)CN(C)C)S(=O)(=O)C,inactive: 1.03
8,O=C(C[C@H]1CC[C@H]2[C@@H](COC[C@@H](O)CN2S(=O)(=O)c2ccc(F)cc2)O1)NCc1ccncn1,inactive: 0.986
9,COc1ccccc1C#Cc1cnc2c(c1)C(=O)N([C@@H](C)CO)C[C@H](C)[C@@H](CN(C)C(=O)CC1CC1)O2,inactive: 1.01
10,Cc1noc(C)c1NC(=O)N(C)C[C@H]1Oc2ccc(NS(C)(=O)=O)cc2C(=O)N([C@@H](C)CO)C[C@H]1C,inactive: 0.988
11,CSCC[C@H]1NC(=O)NC1=O,inactive: 0.995
12,C[C@H](CO)N1C[C@H](C)[C@H](CN(C)S(=O)(=O)c2ccc(F)cc2)Oc2ccc(NC(=O)CCN3CCOCC3)cc2C1=O,inactive: 1.01
13,C[C@H]1CN([C@@H](C)CO)C(=O)Cc2cc(NC(=O)Cc3ccccc3)ccc2O[C@@H]1CN(C)Cc1ccc(Cl)c(Cl)c1,inactive: 0.986
14,C[C@@H]1CN([C@H](C)CO)C(=O)c2cccc(NC(=O)C3CCCCC3)c2O[C@@H]1CN(C)C(=O)Nc1cccc2ccccc12,inactive: 1.02
15,O=C(C[C@@H]1C=C[C@H](NS(=O)(=O)c2ccc(F)cc2)[C@H](CO)O1)NCc1ccc(Cl)c(Cl)c1,inactive: 0.983
16,C[C@@H]1CCCCO[C@H](CN(C)C(=O)c2ccccc2)[C@@H](C)CN([C@@H](C)CO)C(=O)c2cc(NC(=O)Nc3ccccc3)ccc2O1,inactive: 0.992
17,C[C@H](CO)N1C[C@H](C)[C@H](CN(C)C(=O)Nc2ccc3c(c2)OCO3)Oc2c(NC(=O)Nc3ccc(C(F)(F)F)cc3)cccc2C1=O,inactive: 0.998
18,C#CCCCCCCCCCCCC(O)CC(O)COC(C)=O (configuration not stated),inactive: 0.848
19,CC1(C)C(=O)C=CC2(C)C1C=CC1(C)C2CCC2(C)C(c3ccoc3)OC(=O)C3OC312 (configuration not stated),inactive: 1.16
20,COc1ncnc(NS(=O)(=O)c2ccc(N)cc2)c1OC,inactive: 1.03
21,C[C@H](CO)N1C[C@H](C)[C@@H](CN(C)C(=O)c2ccncc2)OCCCC[C@H](C)Oc2ccc(NS(=O)(=O)c3ccc(Cl)cc3)cc2C1=O,inactive: 0.999

row,SMILES,relative growth
1,CCCNC(=O)c1cc2c(c(-c3cccc(-c4cccc(F)c4)c3)n1)[C@H](CCO)N([S@@](=O)C(C)(C)C)C2,inactive: 0.955
2,C[C@@H]1CCCCO[C@@H](CN(C)C(=O)c2ccccc2)[C@@H](C)CN([C@H](C)CO)C(=O)c2cc(NC(=O)c3ccccc3)ccc2O1,inactive: 0.997
3,CC(C)NC(=O)N(C)C[C@H]1Oc2ccc(NC(=O)C3CCCCC3)cc2C(=O)N([C@H](C)CO)C[C@H]1C,inactive: 0.998
4,Cc1noc(C)c1S(=O)(=O)Nc1cccc2c1O[C@@H](CN(C)C(=O)Nc1ccc3c(c1)OCO3)[C@@H](C)CN([C@@H](C)CO)C2=O,inactive: 0.992
5,CN1CCC(=C2c3ccccc3C=Cc3ccccc32)CC1.Cl,inactive: 1.1
6,C[C@H](CO)N1C[C@H](C)[C@H](CN(C)Cc2ccc(-c3ccccc3)cc2)Oc2ccc(NC(=O)Nc3ccccc3)cc2CC1=O,inactive: 1.02
7,NCCCC[C@@H](N)C(=O)N[C@@H](Cc1ccc(O)cc1)C(=O)N[C@@H](CCCCN)C(=O)O,inactive: 0.993
8,O=C(CCCCCCC(=O)Nc1ccccc1O)N/N=C/[C@H](O)[C@@H](O)[C@H](O)[C@H](O)CO[C@H]1O[C@H](CO)[C@H](O)[C@H](O)[C@H]1O,inactive: 0.987
9,COc1ccc(S(=O)(=O)Nc2cccc3c2O[C@@H](CN(C)S(=O)(=O)c2c(C)noc2C)[C@H](C)CN([C@@H](C)CO)C3=O)cc1,inactive: 1.03
10,C[C@@H]1CN([C@H](C)CO)C(=O)CCCn2nncc2CO[C@H]1CN(C)S(=O)(=O)c1ccccc1C#N,inactive: 0.977
11,Cn1cncc1C(=O)O,inactive: 1.02
12,CC(C)NC(=O)Nc1ccc2c(c1)C(=O)N([C@H](C)CO)C[C@H](C)[C@@H](CN(C)C(=O)Nc1cccc3ccccc13)OCCCC[C@H](C)O2,inactive: 0.985
13,NS(=O)(=O)c1cc2c(cc1C(F)(F)F)NCNS2(=O)=O,inactive: 1.15
14,CC(=O)c1c(O)cc(O)cc1CC(=O)O,inactive: 1
15,C[C@H](CO)N1C[C@H](C)[C@H](CN(C)S(=O)(=O)c2ccc(Cl)cc2)OCCCC[C@H](C)Oc2ccc(NC(=O)c3ccncc3)cc2C1=O,inactive: 1.02
16,CN(Cc1ccc(C(C)(C)C)cc1)Cc1cccc2ccccc12.Cl,inactive: 1.09
17,C[C@@H]1CN([C@H](C)CO)C(=O)Cc2cc(NC(=O)CCCCCC(=O)Nc3ccccc3N)ccc2O[C@@H]1CN(C)CC1CCCCC1,inactive: 0.95
18,C[C@@H]1CN([C@@H](C)CO)C(=O)c2cc(NC(=O)c3ccccc3)ccc2O[C@@H](C)CCCCO[C@@H]1CN(C)C(=O)Cc1ccccc1,inactive: 0.982
19,COc1ccc(S(=O)(=O)N2C[C@H](O)COC[C@@H]3O[C@H](CC(=O)NCCN4CCCCC4)CC[C@H]32)cc1,inactive: 0.938
20,C[C@H]1CCCCO[C@@H](CN(C)Cc2ccc(C(F)(F)F)cc2)[C@@H](C)CN([C@@H](C)CO)C(=O)c2cc(NC(=O)Nc3ccc4c(c3)OCO4)ccc2O1,inactive: 0.915
